This is one part of the list. The full chains were built here from the parent and the listed change. Inactive controls read about 0.05.
B1: TEV protease; numbered along this chain (parent)
chain: MGESLFKGPRDYNPISSSICHLTNESDGHTTSLYGIGFGPFIITNKHLFRRNNGTLVVQSLHGVFKVKDTTTLQQHLVDGRDMIIIRMPKDFPPFPQKLKFREPQREERICLVTTNFQTKSMSSMVSDTSCTFPSGDGIFWKHWIQTKDGQCGSPLVSTRDGFIVGIHSASNFTNTNNYFTSVPKNFMELLTNQEAQQWVSGWRLNADSVLWGGHKVFMVKPEEPFQPVKEATQL

Variants of: B1
Experiment: raw area under fraction-flipped curve 0-4 h after induction (AUC4h, not background-subtracted), DNA-recorder readout of cleavage of the substrate (dimensionless); higher = more cleavage of the substrate by the protease variant
Conditions: temperature: 34 °C; time window: 0-4 h after rhamnose induction
Procedure: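 In vivo DNA recorder in E. coli TOP10(DE3) ΔrhaA at 34 °C. Each TEVp single-site mutant (parent TEVp 0) is paired with a single-site variant of the 7-mer TEVs (canonical ENLYFQ|S). The substrate sits between flexible linkers in a Bxb1-sfGFP-TEVs-SsrA fusion, so cleavage stabilises Bxb1 and speeds flipping of a recombination array, read by NGS. The value is the raw area under the fraction-flipped curve over 0-4 h after rhamnose induction (AUC4h), with ≥20 reads per time point. It is not background-subtracted; inactive controls average about 0.047.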
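Further: Bxb1 expression induced with 0.2% (w/v) L-rhamnose at OD600 near 0.5, cultures sampled hourly, flipped fraction per protease–substrate barcode pair counted by paired-end Illumina sequencing.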

Variant	area with substrate CNLYFQS	area with substrate GNLYFQS	area with substrate HNLYFQS	area with substrate LNLYFQS	area with substrate PNLYFQS	area with substrate TNLYFQS	area with substrate WNLYFQS	area with substrate MNLYFQS	area with substrate NNLYFQS	area with substrate YNLYFQS
F101D	0.0467	0.0476	0.065	0.0488	0.055	0.0564	0.0429	–	–	–
I86G	0.0453	–	–	0.0356	–	–	0.0363	0.0485	0.034	0.0411
R87W	0.0678	–	–	–	0.0641	0.0649	0.0545	–	–	0.0558
H143M	0.0611	0.0659	0.0507	–	0.0569	0.0618	0.0572	0.0637	0.0503	0.0585
T147D	0.0508	–	–	–	0.065	–	–	–	–	–
W199V	0.0795	0.0627	0.0662	0.0728	0.0806	–	0.0596	0.07	0.0529	0.0652
N186S	0.0821	–	–	0.0631	0.0643	0.0596	0.0685	0.0767	–	–
F65S	0.0648	–	–	–	0.0612	0.0662	–	0.0723	0.0755	0.0486
W199I	0.0621	–	0.0453	–	–	0.0593	0.0612	–	–	–
Q227F	0.0719	0.0712	–	0.0646	0.0589	–	0.0597	–	–	–
F180D	0.047	0.0562	0.0481	–	0.0591	0.0427	0.0444	–	–	0.0473
P228D	0.0623	–	0.0723	0.0813	0.0978	0.0204	–	0.0577	–	–
P9H	0.0673	–	–	–	0.0682	0.0643	–	–	–	0.0528
F41K	0.0492	0.0541	0.0419	0.0646	0.0506	0.066	0.0521	0.0438	–	–
G63C	0.0517	–	0.0618	–	0.0733	0.0649	0.0601	0.065	–	0.0606
E189S	0.043	–	0.0598	0.0589	–	0.0672	0.0646	0.035	0.073	–
Q227G	0.0555	–	0.056	–	0.0916	0.0668	0.0628	–	–	0.0497
K100M	0.0669	0.057	0.0956	–	0.0716	0.0768	0.0577	0.0752	–	–

Same assay, conditions: temperature: 34 °C; time window: 0-4 h after rhamnose induction

Variant	area with substrate FNLYFQS	area with substrate INLYFQS	area with substrate KNLYFQS	area with substrate SNLYFQS	area with substrate VNLYFQS	area with substrate QNLYFQS	area with substrate RNLYFQS
R87W	0.0266	0.0419	0.0382	0.0476	0.0706	–	–
H143M	0.0577	0.0858	0.0715	0.0546	–	0.0768	–
T147D	–	–	–	–	–	–	0.0642
W199V	0.0554	0.0531	0.065	0.0738	0.0449	–	–
N186S	0.0702	–	0.0525	0.0518	0.0698	–	–
F65S	–	–	0.0637	–	–	–	–
W199I	0.0756	–	–	0.0468	0.0486	–	–
Q227F	–	0.0573	–	–	0.036	–	–
F180D	0.0577	0.0561	–	0.0369	0.0618	–	–
P228D	–	0.084	–	0.084	–	0.0803	–
P9H	–	0.0618	–	–	–	–	0.0559
F41K	0.0683	–	–	–	0.0495	–	–
G63C	0.0688	0.083	0.062	0.0617	–	–	–
E189S	–	0.106	–	–	–	0.0721	–
Q227G	–	0.0584	0.0658	0.0496	0.084	–	–
K100M	0.0726	0.066	0.0755	–	0.0608	–	–

Source: the supplement of paper PMC12217912
